# Data from PubChem BioAssay AID588579 (National Center for Advancing Translational Sciences (NCATS), 2011).
# “And” between values parts separate entries of the source, which are not always exact repeats. Equal entries are not always repeated. The campaign covered roughly 400,000 compounds. About 2,200 (0.55%) were called active. This list was built around the results that the source calls inconclusive (neither active nor inactive); the mix of calls is not that of the screen. Calls follow the shape of the dose curve; as a rule, active = well fitted inhibition curve with a large enough effect; inconclusive = small, poorly fitted or top-dose-only effect, or another doubt; inactive = no such curve, though single readings can be large or run the other way. Potencies beside an inconclusive call are fits to weak or partial responses and may not hold up. The source holds several records for some structures; these can differ, active in one and inactive in another.
# Molecular target: DNA polymerase kappa (Homo sapiens) (UniProt Q9UBT6)
# Assay: qHTS for Inhibitors of Polymerase Kappa
# Details: purified Pol kappa, fluorescent DNA synthesis assay, 10 min; series mostly up to 107 µM; activity, negative = inhibition: at the top concentration
# In short: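 Activity was followed as the change in fluorescence between reads at 0 and 10 min after starting the reaction with 50 nM substrate. Beforehand, 10 nM polymerase had been preincubated with compound for 15 min at room temperature.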
# % is scaled to controls: 0 for no effect and ±100 for the full control effect; potency is read from the fitted curve at half-maximal effect; tags tell the direction and shape of the fitted curve.
# Chain of UniProt Q9UBT6 (Q9UBT6 whole entry, looked up): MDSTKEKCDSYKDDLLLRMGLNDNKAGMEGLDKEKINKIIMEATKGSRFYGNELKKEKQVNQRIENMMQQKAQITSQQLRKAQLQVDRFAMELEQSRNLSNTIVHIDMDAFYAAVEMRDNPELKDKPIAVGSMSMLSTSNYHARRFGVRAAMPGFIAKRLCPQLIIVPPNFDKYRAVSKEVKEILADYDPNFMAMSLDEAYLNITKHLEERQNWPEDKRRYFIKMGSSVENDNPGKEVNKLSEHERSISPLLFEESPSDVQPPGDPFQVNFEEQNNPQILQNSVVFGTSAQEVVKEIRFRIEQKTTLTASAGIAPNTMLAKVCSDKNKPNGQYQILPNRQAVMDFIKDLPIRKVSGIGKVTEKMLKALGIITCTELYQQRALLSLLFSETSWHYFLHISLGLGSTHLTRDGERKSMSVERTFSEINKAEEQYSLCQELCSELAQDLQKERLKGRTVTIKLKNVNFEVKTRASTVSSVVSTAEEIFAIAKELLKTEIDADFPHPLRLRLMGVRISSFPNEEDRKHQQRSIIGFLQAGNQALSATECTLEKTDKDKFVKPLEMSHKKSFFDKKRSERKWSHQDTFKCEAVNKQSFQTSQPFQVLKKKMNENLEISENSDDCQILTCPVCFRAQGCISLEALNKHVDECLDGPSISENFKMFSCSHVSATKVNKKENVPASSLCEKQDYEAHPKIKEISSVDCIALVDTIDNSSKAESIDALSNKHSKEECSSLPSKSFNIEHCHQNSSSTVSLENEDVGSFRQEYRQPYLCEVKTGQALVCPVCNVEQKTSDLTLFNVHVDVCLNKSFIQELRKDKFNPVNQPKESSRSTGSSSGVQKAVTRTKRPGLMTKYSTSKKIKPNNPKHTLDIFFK
SMILES,Potency,"activity, negative = inhibition"
COc1ccc(C(=O)C2C3C4COC(O4)C(=O)C3C3C=Cc4ccccc4N32)c(OC)c1 (configuration not stated),"inconclusive: 12.6 µM [inhibitor, partial curve]",
Cc1ccc(CNC(=O)CCCCCn2c(=O)[nH]c3ccccc3c2=O)cc1,,inactive: -1.39% [at 60.1 µM]
O=S(=O)(O)c1cc(O)c2c(N=Nc3ccc(Nc4ccccc4)c4c(S(=O)(=O)O)cccc34)cc(S(=O)(=O)O)cc2c1,active: 3.16 µM,
Cc1nc(C)c(C(=O)Nc2ncc([N+](=O)[O-])s2)o1,"inconclusive: 56.2 µM [inhibitor, partial curve, poor fit]",
COc1ccc(CCN2CC(C(=O)NCc3nc4ccccc4n3C)CCC2=O)cc1 (configuration not stated),,inactive: -19.2%
Cc1ccc(NC(=O)COC(=O)c2cc(=O)c3cc(F)ccc3o2)cc1,"inconclusive: 89.1 µM [inhibitor, single point]",
O=C(CSc1oc(-c2ccc(F)cc2)nc1S(=O)(=O)c1ccc(Cl)cc1)c1ccccc1,"inconclusive: 89.1 µM [inhibitor, single point]",
COc1ccc(NC(=O)/C(C#N)=C/c2ccc(Br)o2)cc1,active: 79.4 µM,
Cc1nc2cc(N)ccc2n1C1CCCCC1,"inconclusive: 70.8 µM [inhibitor, partial curve, poor fit]",
CC1=C/C(=C(/c2cc(C)c(O)c(Br)c2)c2ccccc2S(=O)(=O)O)C=C(Br)C1=O,"inconclusive: 79.4 µM [inhibitor, single point]",
C=C(C)Cn1c(SCC(=O)Nc2cccc(C)c2)nc2sc3c(c2c1=O)CCCC3,"inconclusive: 89.1 µM [inhibitor, single point]",
CCc1ccc2nc3sc(C(=O)Nc4nnc(CC)s4)c(N)c3cc2c1,"inconclusive: 31.6 µM [inhibitor, full curve, poor fit]",
Cc1cccc2cc(-c3nc4ccc(C(=O)O)cc4[nH]3)c(=O)oc12,"inconclusive: 89.1 µM [inhibitor, single point]",
CCOc1ccc(S(=O)(=O)N(CC(=O)N/N=C/c2ccc(-c3ccc([N+](=O)[O-])cc3)o2)c2ccccc2)cc1,"inconclusive: 79.4 µM [inhibitor, partial curve]",
O=c1oc2c(O)c(O)cc3c(=O)oc4c(O)c(O)cc1c4c23,active: 126 nM and active: 251 nM and active: 794 nM,
Cc1cc(NC(=O)COC(=O)c2ccccc2OCCOc2ccccc2)ccc1Br,,inactive: 3.62%
Fc1ccc2[nH]c3c(NCc4ccco4)ncnc3c2c1,"inconclusive: 89.1 µM [inhibitor, partial curve, poor fit]",
